Test results as given in a compilation of properties of binary mixtures (doi:10.1088/1757-899x/591/1/012044).
The densities may have been worked out from excess volumes.

Test: xn = mol fraction of the nth substance listed
Settings: 101 kPa

O + CC[n+]1ccn(C)c1.CS(=O)(=O)[O-]
x2 = 0
Settings	mass density [kg/m3]
288.15 K	998.3
293.15 K	997.8
313.15 K	992.9

CC[n+]1ccn(C)c1.CS(=O)(=O)[O-] + O
mass density [kg/m3]
Settings	288.15 K	293.15 K	298.15 K	303.15 K	308.15 K	313.15 K
x1 = 0.25	1197.3	–	1190	1187.8	1184.4	1180.5
x1 = 0.5	–	1224.9	1221.6	1218.2	1214.8	1211.5
x1 = 0.75	–	1235.2	1232.5	1228.5	1226.3	–
x1 = 1	–	1243.4	1240	1236.5	1233.1	1229.8
